# Reference: PMC4336329 (PLoS ONE, 2015)
# In all, about 310,000 compounds went through this assay and about 14,000 (4.5%) showed an effect of 50% or more. The effect is printed as a negative number. This is one part of the list.
# Target: human ether-à-go-go-related gene (hERG) potassium channel (human, UniProt Q12809)
# Test: primary screen, population patch clamp on CHO cells stably expressing hERG
# 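Further: peak tail current of the secondary pulse compared with the same well before compound.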
# Chain of human ether-à-go-go-related gene (hERG) potassium channel (Q12809 whole entry, looked up): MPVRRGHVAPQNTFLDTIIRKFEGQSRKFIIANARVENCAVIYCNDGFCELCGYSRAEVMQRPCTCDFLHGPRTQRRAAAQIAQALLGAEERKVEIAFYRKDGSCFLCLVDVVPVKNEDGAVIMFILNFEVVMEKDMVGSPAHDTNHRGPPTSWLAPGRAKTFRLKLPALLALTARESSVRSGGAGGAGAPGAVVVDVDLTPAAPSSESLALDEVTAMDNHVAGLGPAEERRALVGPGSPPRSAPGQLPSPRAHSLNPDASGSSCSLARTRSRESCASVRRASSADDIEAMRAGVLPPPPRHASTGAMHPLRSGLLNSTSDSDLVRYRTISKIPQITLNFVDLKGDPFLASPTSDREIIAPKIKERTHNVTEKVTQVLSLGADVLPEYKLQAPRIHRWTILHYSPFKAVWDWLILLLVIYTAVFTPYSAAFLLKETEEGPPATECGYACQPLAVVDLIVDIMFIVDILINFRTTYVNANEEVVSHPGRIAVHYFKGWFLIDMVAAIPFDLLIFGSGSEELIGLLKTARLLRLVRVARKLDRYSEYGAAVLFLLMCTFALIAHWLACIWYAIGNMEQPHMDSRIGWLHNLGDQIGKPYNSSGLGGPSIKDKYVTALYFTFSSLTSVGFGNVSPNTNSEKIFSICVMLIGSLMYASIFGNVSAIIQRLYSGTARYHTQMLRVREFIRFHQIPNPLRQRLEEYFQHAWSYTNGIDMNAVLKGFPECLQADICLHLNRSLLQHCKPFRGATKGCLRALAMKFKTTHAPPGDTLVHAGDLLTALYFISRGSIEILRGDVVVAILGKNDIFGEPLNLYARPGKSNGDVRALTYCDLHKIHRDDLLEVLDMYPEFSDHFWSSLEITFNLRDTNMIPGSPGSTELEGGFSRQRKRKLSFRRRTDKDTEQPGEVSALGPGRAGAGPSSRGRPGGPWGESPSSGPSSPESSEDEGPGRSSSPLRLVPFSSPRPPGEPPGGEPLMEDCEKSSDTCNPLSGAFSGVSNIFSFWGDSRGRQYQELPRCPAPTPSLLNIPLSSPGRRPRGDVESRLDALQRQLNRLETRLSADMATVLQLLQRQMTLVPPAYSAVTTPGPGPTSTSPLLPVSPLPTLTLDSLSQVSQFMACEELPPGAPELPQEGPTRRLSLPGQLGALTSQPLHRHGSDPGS
row,Compound,"hERG current change (%, negative = inhibition) at 10uM"
1,Cc1cc(C)c(S(=O)(=O)N2CCCOC2CNC(=O)C(=O)NCc2ccco2)c(C)c1 (centres unmarked),5.27%
2,COc1ccc(N2CCN(C(=O)[C@H](Cc3c[nH]c4ccccc34)NC(C)=O)CC2)cc1,7.32%
3,NC(=O)CC[C@H](NC(=O)c1ccc(F)cc1)C(=O)OCC(=O)Nc1c(F)c(F)c(F)c(F)c1F,-6.21%
4,Cn1c(=O)c(Sc2ccc(Cl)cc2)c(O)c2ccccc21,24%
5,COc1ccccc1-n1c2c(cc(C(=O)N3CCC(C)CC3)c1=O)C(=O)CC(C)(C)C2,-9.14%
6,O=C(CCc1nnc(C2CCCCC2)o1)N1CCN(C2CCCCC2)CC1,10.4%
7,COc1cccc(OCc2cc(C(=O)NC(C)c3cnn(C)c3C)no2)c1 (centres unmarked),-2.65%
8,Cc1nn(-c2nc3ccccc3s2)c(N)c1-c1ccc(Cl)cc1,24.1%
9,O=C(CCN1C(=O)c2ccccc2C1=O)Nc1ccncc1,-0.744%
10,O=C1C(Cc2ccccc2)S/C(=N/N=C/c2ccco2)N1c1ccccc1 (centres unmarked),13%
11,CCOc1ccc2nc(SCC(=O)Nc3ncccn3)[nH]c2c1,8.99%
12,O=C(Nc1c(C(=O)O)[nH]c2ccccc12)NC1CCCCC1,5.81%
13,CCOc1ccc(CCNC(=O)c2sc3nc4n(c(=O)c3c2C)CCC4)cc1,-6.82%
14,Cc1ccsc1/C=N/NC(=O)c1nnn(-c2nonc2N)c1CN(C)c1ccccc1,21.8%
15,Cc1cc(NC(=O)CN(C)S(=O)(=O)c2cccc(Cl)c2)no1,-14.8%
16,CCCN(C(=O)CSc1nnnn1C)C1CCS(=O)(=O)C1 (centres unmarked),10.3%
17,CCC(=O)Nc1cc(C)c(NC(=O)c2ccco2)cn1,6.77%
18,COC(=O)Cn1nnc2c(cnn2-c2ccccc2)c1=O,6.88%
19,Cc1c(CCOC(=O)CC23CC4CC(CC(C)(C4)C2)C3)sc[n+]1Cc1ccc([N+](=O)[O-])cc1.[Br-],-87.8%

row,Compound,"hERG current change (%, negative = inhibition) at 10uM"
1,C/C(=N\NC(=O)c1ccc(N/N=C(\C)c2ccncc2)cc1)c1ccncc1.O=S(=O)(O)O,15.1%
2,Cc1nn(Cc2c(Cl)cccc2Cl)c(C)c1NC(=O)c1sc2ccccc2c1Cl,13.4%
3,Cc1ccc(N2C(=O)[C@@H]3C(c4ccc(F)cc4)=NO[C@@H]3C2=O)cc1,-2.56%
4,COC(=O)c1nc2n(n1)C(c1ccc(OC)c(OC)c1)C(C(=O)OC1CCCCC1)=C(C)N2 (centres unmarked),-11.1%
5,O=C(Nc1ccc2c(c1)OCCO2)c1cnc2n(c1=O)CCS2,0.938%
6,Cc1ccc(CSCC(=O)NCc2cccs2)cc1,-2.02%
7,CSc1nncn1/N=C/c1ccc([N+](=O)[O-])cc1,-30.7%
8,CSc1ccc(Cl)c(C(=O)Nc2ccc(OCC(N)=O)cc2)c1,-13.8%
9,CC(C)(C)c1ccc(OCCSc2nc3ccccc3n2CC(=O)O)cc1,20.1%
10,O=C1CC(C(=O)N2CCOCC2)C2(CCCC2)O1 (centres unmarked),5.1%
11,O=C(O)c1cc2n(n1)C(C(F)(F)F)CC(C1CC1)N2 (centres unmarked),-9.42%
12,Cc1cc(C(F)F)n2nc(C(=O)Nc3ccc(S(=O)(=O)NC45CC6CC(CC(C6)C4)C5)cc3)nc2n1,-8.28%
13,O=C1NC2(CCCCC2)C(=O)N1CC(=O)N(Cc1ccccc1)c1ccccc1,-10.9%
14,C=CCN1C(=O)/C(=C2/Sc3ccc(OC)cc3N2CC)SC1=S,24.1%
15,Cl.O=C(c1ccccc1)N1CCN(CC(O)COc2cccc3ccccc23)CC1 (centres unmarked),-28.1%
16,O=C1N/C(=N/O)S/C1=C\c1ccccc1-n1cccn1,5.29%
17,CCCCN1C(=O)CCC(C(=O)O)C1c1ccc(OC)cc1 (centres unmarked),-6.12%
18,CC(C)=CCN1CCN(Cc2nc(C(C)C)cs2)CC1CCO (centres unmarked),-12.9%
19,CCc1nnc(NC(=O)c2ccc(S(=O)(=O)N(CC)Cc3ccccc3)cc2)o1,-12.9%

row,Compound,"hERG current change (%, negative = inhibition) at 10uM"
1,Cc1ccc(NC(=O)C2CC2c2ccccc2)cc1 (centres unmarked),2.96%
2,COc1ccc(NS(=O)(=O)c2cccc(NC(=O)CCC(=O)c3ccc(Cl)cc3)c2)cc1,3.74%
3,COc1ccc(/C=C/C(=O)Nc2cccnc2)cc1OC,24.9%
4,CC1(C)OC(=O)N2CCc3ccccc3C21C (centres unmarked),-7.73%
5,COc1ccc(CCC(=O)Nc2nc3ccccc3[nH]2)cc1,14.3%
6,Cc1ccc(OC(=O)C2c3ccccc3Oc3ccccc32)cc1C,13.8%
7,Cc1cccc(NC(=S)NNC(=O)c2ccccc2OC(F)F)c1,19.2%
8,Cc1cc2ccccc2n1CCNC(=O)C1CCCC1,10.2%
9,CCC(Sc1ncccc1C(=O)OCCN1CCCC1=O)C(=O)NCc1ccco1 (centres unmarked),-9.56%
10,C=CCNCCCOc1ccc(Cl)cc1Br.O=C(O)C(=O)O,-42.6%
11,CC(=O)Nc1ccc(-n2c(C)c(C(C)=O)c(C(C)=O)c2C)cc1,7.02%
12,COC(=O)c1cc(C(C)=O)c(C)[nH]c1=O,37.9%
13,Cn1cnc2c1c(=O)n(Cc1ccc(F)cc1Cl)c(=O)n2C,5.82%
14,CCOc1cc(C(=O)NC(C)C2CC3CCC2C3)cc(OCC)c1OCC (centres unmarked),-10.7%
15,COc1ccccc1CNC(=O)C1CCC(CNS(=O)(=O)c2ccc(NC(C)=O)cc2)CC1 (centres unmarked),16.5%
16,COc1ccc(Cn2c(C3CCCCC3)nc3c(c(=O)c4ccccc4n3C)c2=O)cc1,19.5%
17,CCCC(=O)N/C(N)=N/c1nc(C)c2ccccc2n1,-9.34%
18,Cc1ccc(-n2c(SCC(=O)NCC3CCCO3)nnc2-c2ccoc2C)cc1 (centres unmarked),-55.6%
